# According to PubChem BioAssay (EPA / NIEHS):
# For part of these data: This list holds what a sample rich in hits left over. This is a selection; strong and weak results do not stand in their true shares. Records with an inconclusive call do not appear. Active and inactive are the calls of the source. The calls were made as follows, unless noted: active = hit-call score of the fitted dose curve at least 0.9, where 1 is the maximum; inactive = score below 0.9.
# Assays:
# [1] = read-out: Vascular cell adhesion molecule 1 (VCAM1), VCAM1 (gene 7412); assay: BSK_4H_VCAM1: BioMAP Diversity Plus: 4H Assay for Vascular cell adhesion molecule 1 (VCAM1) Biomarker Activity (AID 2283033); settings: actives raise or lower the signal; primary human endothelial cells (HUVEC);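 also: cell-surface VCAM-1 protein measured by ELISA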
# How it was run: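 Chemicals are added to primary human umbilical vein endothelial cells. After 24 h, VCAM-1 levels are measured by ELISA. Values come from bidirectional fitting referenced to DMSO.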
# [2] = read-out: Vascular cell adhesion molecule 1 (VCAM1), VCAM1 (gene 7412); assay: BSK_hDFCGF_VCAM1: BioMAP Diversity Plus: hDFCGF Assay for Vascular cell adhesion molecule 1 (VCAM1) Biomarker Activity (AID 2283065); settings: actives raise or lower the signal; primary human foreskin fibroblasts
# How it was run: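 Measured after 24 h chemical treatment of primary human skin fibroblasts, VCAM-1 was detected by ELISA and concentration-response analysed in both directions versus DMSO vehicle.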
# [3] = target: human Matrix Metalloproteinase-3 (MMP3), MMP3 (gene 4314) (UniProt P08254); assay: NVS_ENZ_hMMP3: NovaScreen (NVS) Enzymatic Assay for human Matrix Metalloproteinase-3 (MMP3) (AID 2283185; active = hit-call score of the fitted dose curve at least 0.9, where 1 is the maximum)
# Chain of UniProt P08254 (P08254 whole entry, looked up): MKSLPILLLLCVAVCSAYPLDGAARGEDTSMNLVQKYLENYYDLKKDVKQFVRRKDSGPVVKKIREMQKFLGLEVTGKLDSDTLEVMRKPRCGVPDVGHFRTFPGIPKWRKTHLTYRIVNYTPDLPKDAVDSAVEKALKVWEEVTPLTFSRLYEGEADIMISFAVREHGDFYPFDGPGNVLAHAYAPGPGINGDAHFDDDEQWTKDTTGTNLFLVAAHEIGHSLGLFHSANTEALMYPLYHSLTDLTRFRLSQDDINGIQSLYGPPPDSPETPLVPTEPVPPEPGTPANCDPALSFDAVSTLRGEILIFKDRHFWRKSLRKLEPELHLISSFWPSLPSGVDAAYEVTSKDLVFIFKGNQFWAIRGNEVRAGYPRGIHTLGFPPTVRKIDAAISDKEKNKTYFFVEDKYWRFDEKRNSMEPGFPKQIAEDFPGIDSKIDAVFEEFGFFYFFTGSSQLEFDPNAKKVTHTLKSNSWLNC
# Method: NVS_ENZ_hMMP3 is a biochemical, single-readout assay that uses extracted gene-proteins in a cell-free assay. Measurements were taken 1 hour after chemical dosing in a 96-well plate.NVS_ENZ_hMMP3 is one of one assay component(s) measured or calculated from the NVS_ENZ_hMMP3 assay. It is designed to make measurements of enzyme activity, a form of enzyme reporter, as detected with fluorescence intensity signals by Fluorescence technology.Data from the assay component NVS_ENZ_hMMP3 was analyzed into 1 assay endpoint. This assay endpoint, NVS_ENZ_hMMP3, was analyzed in the positive analysis fitting direction relative to DMSO as the negative control and baseline of activity. […] Furthermore, this assay endpoint can be referred to as a primary readout, because this assay has produced multiple assay endpoints where this one serves a enzymatic activity function. […]
# Binding assays used specific radioligands (tritiated, iodinated) with non-radioactive competitive displacement ligands in agonist or antagonist protocols (as indicated) and various reference compounds and inhibitors to titrate specific binding to receptors and transporters. Most enzyme assays (CYPs, kinases, phosphatases, proteases, HDACs) used recombinant protein and specific substrates (fluorescence mostly, some colorimetric and radioactive) and inhibitors, followed by a biochemical separation of substrate and product. […]
# [4] = read-out: Heat shock 70 kDa protein 1 (HSPA1A), gene 3303; assay: LTEA_HepaRG_HSPA1A: Life Technologies and Expression Analysis (LTEA) Assay for Heat shock 70 kDa protein 1 (HSPA1A) using HepaRG (AID 2283502); settings: actives raise or lower the signal; mRNA level, 48 h
# How it was run: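 Cells were plated and cultured for 48 h, then switched to serum-free induction medium. Chemicals were added at eight half-log concentrations up to 100 uM for 48 h. RNA was then isolated and HSPA1A measured by qRT-PCR with bidirectional curve fitting against DMSO.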
# [5] = read-out: solute carrier (SLC22A1), SLC22A1 (gene 6580); assay: LTEA_HepaRG_SLC22A1: Life Technologies and Expression Analysis (LTEA) Assay for solute carrier (SLC22A1) using HepaRG (AID 2283524); settings: actives raise or lower the signal; mRNA level, 48 h;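 also: differentiated human HepaRG liver cells in serum-free induction medium; TaqMan qRT-PCR normalized to ACTB GAPDH and POLR2A housekeeping genes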
# How it was run: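 Transcript level of SLC22A1 quantified by qRT-PCR (normalized to three housekeeping genes) after 48 h chemical exposure of HepaRG cells, eight concentrations up to 100 µM, half-log steps, 0.5% DMSO vehicle. Gain or loss relative to DMSO fitted bidirectionally.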
# [6] = read-out: Human Leukocyte Antigen - DR isotype (HLADR), HLA-DRA (gene 3122); assay: BSK_BE3C_HLADR: BioMAP Diversity Plus: BE3C Assay for Human Leukocyte Antigen - DR isotype (HLADR) Biomarker Activity (AID 2283032); settings: actives raise or lower the signal; primary human bronchial epithelial cells
# How it was run: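 Chemicals are dosed onto BE3C bronchial epithelial cultures of human origin and left 24 h. HLA-DR is then measured by ELISA, and the endpoint is fitted in both directions using DMSO as the activity baseline.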
# [7] = read-out: Transforming growth factor beta 1 (TGFb1), TGFB1 (gene 7040); assay: BSK_BE3C_TGFb1: BioMAP Diversity Plus: BE3C Assay for Transforming growth factor beta 1 (TGFb1) Biomarker Activity (AID 2283036;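 also: TGF-b1 protein level measured by ELISA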); settings: actives raise or lower the signal; primary human bronchial epithelial cells
# How it was run: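 Bronchial epithelial primary cells are treated with test chemical, then TGF-b1 is quantified by ELISA after 24 hours. Values derive from bidirectional fitting against DMSO, with cytotoxicity checked by SRB staining in parallel cultures.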
# [8] = read-out: Urokinase-type plasminogen activator receptor (uPAR), PLAUR (gene 5329); assay: BSK_BE3C_uPAR: BioMAP Diversity Plus: BE3C Assay for Urokinase-type plasminogen activator receptor (uPAR) Biomarker Activity (AID 2283039); settings: actives raise or lower the signal; primary human bronchial epithelial cells;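 also: uPAR protein level measured by ELISA on the cells; cells exposed to compound for one day before measurement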
# How it was run: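 Steps: dose human primary bronchial epithelial cells, incubate 24 h, measure uPAR by ELISA, then fit gain- or loss-of-signal response bidirectionally relative to DMSO.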
# [9] = CEETOX_H295R_11DCORT: CeeTox H295R High-throughput Steroidogenesis Assay for 11-Deoxycortisol (11DCORT) (AID 2283432); settings: actives raise or lower the signal;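 also: human adrenal H295R cells prestimulated with 10 µM forskolin for 48 h; 11-deoxycortisol secreted into the medium measured by LC-MS/MS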
# How it was run: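 Steroidogenesis in human H295R cells: 48 h chemical exposure after forskolin priming, 11-deoxycortisol measured by LC-MS/MS.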
# [10] = ArunA_CellTiter_hNP: Viability Assessment in the ArunA Biomedical's Oris Neural Crest (hNC) Cell Migration Assay (AID 2283753; active = hit-call score of the fitted dose curve at least 0.9, where 1 is the maximum)
# How it was run: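 Viability read with CellTiter 96 Aqueous One after 72 h chemical exposure of human hNP1 neuroprogenitors, which were plated on Matrigel in LIF/bFGF medium 16 h beforehand. Endpoint fitted in positive direction relative to DMSO.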
# [11] = VALA_TUBHUV_Agonist_CellCount: Viability Assessment in the VALA Sciences human Umbilical Vein Endothelial Tubule Formation (TUBHUV) Agonism Assay (AID 2284309; active = hit-call score of the fitted dose curve at least 0.9, where 1 is the maximum)
# How it was run: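 Viability endpoint by fluorescent imaging of fixed nuclear/CD31-stained HUVEC–HDF co-cultures. Readout is cell count, fitted upward against 0.1% DMSO. Compound exposure was 72 h in 10 ng/ml VEGF, after 3-day co-culture priming.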
# [12] = VALA_MIGHUV2_CellCount: Viability Assessment in the VALA Sciences human Umbilical Vein Endothelial Cell Migration (MIGHUV) Assay, Area of Scratch Wound after Recovery (AID 2284314; active = hit-call score of the fitted dose curve at least 0.9, where 1 is the maximum)
# How it was run: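 Viability read-out: Hoechst-stained nuclei counted by fluorescence imaging after a 24 h recovery period in fixed, scratched HUVEC plates. Compound was dosed within 30 min of scratching at six concentrations (triplicate); DMSO at 0.1 % served as baseline.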
# [13] = VALA_TUBIPS_Agonist_CellCount: Viability Assessment in the VALA Sciences human iPS-derived Endothelial Tubule Formation (TUBIPS) Agonism Assay (AID 2284338; active = hit-call score of the fitted dose curve at least 0.9, where 1 is the maximum)
# [14] = read-out: Low-density lipoprotein receptor (LDLR), LDLR (gene 3949); assay: BSK_CASM3C_LDLR: BioMAP Diversity Plus: CASM3C Assay for Low-density lipoprotein receptor (LDLR) Biomarker Activity (AID 2283045); settings: actives raise or lower the signal; primary human coronary artery smooth muscle cells;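 also: LDLR protein level on the cell surface quantified by ELISA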
# [15] = ATG_M_32_XSP2: Attagene TRANS-FACTORIAL Multi-Species (XSP2) HepG2 Assay for M19 Transcription Factor (Internal Marker) (AID 2283826; active = hit-call score of the fitted dose curve at least 0.9, where 1 is the maximum)
# How it was run: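 An internal background marker among multiplexed transfected reporters in HepG2 liver cells was measured 24 h after dosing. Androgen receptor stimulation came from 3 nM 6-alpha-fluorotestosterone and 1.5 nM norgestrel.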
# [16] = read-out: Interferon-gamma inducible Protein 10 (IP10), CXCL10 (gene 3627); assay: BSK_BE3C_IP10: BioMAP Diversity Plus: BE3C Assay for Interferon-gamma inducible Protein 10 (IP10) Biomarker Activity (AID 2283034); settings: actives raise or lower the signal; primary human bronchial epithelial cells
# How it was run: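 IP-10 quantified by ELISA serves as the endpoint. Cells: primary human bronchial epithelium, read 24 h after compound addition. Activity is derived by bidirectional fitting with DMSO as negative control.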
# [17] = read-out: Monokine induced gamma interferon (MIG), CXCL9 (gene 4283); assay: BSK_CASM3C_MIG: BioMAP Diversity Plus: CASM3C Assay for Monokine induced gamma interferon (MIG) Biomarker Activity (AID 2283048); settings: actives raise or lower the signal; primary human coronary artery smooth muscle cells;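 also: MIG protein level measured by ELISA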
# [18] = read-out: flavin-containing dimethylaniline monooxygenases 3 (FMO3), FMO3 (gene 2328); assay: LTEA_HepaRG_FMO3: Life Technologies and Expression Analysis (LTEA) Assay for flavin-containing dimethylaniline monooxygenases 3 (FMO3) using HepaRG (AID 2283453); settings: actives raise or lower the signal; mRNA level, 48 h
# How it was run: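 FMO3 transcript quantified by TaqMan qRT-PCR against three housekeeping genes after 48 h chemical exposure of HepaRG cells. Eight-point half-log series, top 100 uM, 0.5% DMSO vehicle; phenobarbital 1mM induction control; up- or down-regulation fitted.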
# [19] = read-out: Cytochrome P450 3A7 (Homo sapiens) (UniProt P24462); assay: LTEA_HepaRG_CYP3A7: Life Technologies and Expression Analysis (LTEA) Assay for CYP3A7 using HepaRG (AID 2283492); settings: actives raise or lower the signal; mRNA level, 48 h
# Chain of UniProt P24462 (P24462 whole entry, looked up): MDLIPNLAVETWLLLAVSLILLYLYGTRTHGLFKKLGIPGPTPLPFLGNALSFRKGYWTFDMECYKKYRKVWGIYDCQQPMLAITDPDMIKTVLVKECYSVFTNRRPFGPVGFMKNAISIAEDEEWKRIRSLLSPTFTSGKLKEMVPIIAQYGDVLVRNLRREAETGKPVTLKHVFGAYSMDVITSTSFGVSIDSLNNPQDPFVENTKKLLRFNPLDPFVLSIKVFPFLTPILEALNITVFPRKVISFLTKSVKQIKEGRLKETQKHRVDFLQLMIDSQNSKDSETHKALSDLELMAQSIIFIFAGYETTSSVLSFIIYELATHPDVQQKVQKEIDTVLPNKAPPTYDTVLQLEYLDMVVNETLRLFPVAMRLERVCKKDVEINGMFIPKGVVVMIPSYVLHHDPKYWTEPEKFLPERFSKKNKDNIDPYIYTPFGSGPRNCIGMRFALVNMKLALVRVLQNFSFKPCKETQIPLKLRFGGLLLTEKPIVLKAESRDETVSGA
# How it was run: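 qRT-PCR of CYP3A7 in HepaRG lysates after 48 h treatment; concentration-response (8 points, max 100 uM) analysed bidirectionally relative to 0.5% DMSO controls.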
# [20] = read-out: UDP glucuronosyltransferase (UGT1A1), UGT1A1 (gene 54658); assay: LTEA_HepaRG_UGT1A1: Life Technologies and Expression Analysis (LTEA) Assay for UDP glucuronosyltransferase (UGT1A1) using HepaRG (AID 2283538); settings: actives raise or lower the signal; mRNA level, 48 h
# How it was run: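 Cells are plated, cultured 48 h, switched to serum-free induction medium, then dosed 48 h at eight concentrations (max 100 uM, 0.5% DMSO). RNA is isolated and UGT1A1 expression measured by qRT-PCR; changes versus DMSO are fitted in both directions.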
# [21] = TOX21_p53_BLA_p4_viability: Viability Assessment in the Tox21 HCT-116 p53 Agonism Beta-lactamase Assay, Phase 4 (AID 2283597; active = hit-call score of the fitted dose curve at least 0.9, where 1 is the maximum;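 also: hits lower the luminescence signal meaning cytotoxicity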)
# How it was run: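 In this multiplexed secondary endpoint, HCT116 cells (4000 per well, compound at 5 h, 16 h treatment) received CellTiter-Glo after the beta-lactamase read. Luminescence after 30 min RT reflects ATP, and falling signal marks cytotoxicity.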
# [22] = target: Cellular tumor antigen p53 (Homo sapiens) (UniProt P04637); assay: TOX21_p53_BLA_p4_ratio: Tox21 HCT-116 p53 Agonism Beta-lactamase Assay, Ratio, Phase 4 (AID 2283601; active = hit-call score of the fitted dose curve at least 0.9, where 1 is the maximum)
# Chain of UniProt P04637 (P04637 whole entry, looked up): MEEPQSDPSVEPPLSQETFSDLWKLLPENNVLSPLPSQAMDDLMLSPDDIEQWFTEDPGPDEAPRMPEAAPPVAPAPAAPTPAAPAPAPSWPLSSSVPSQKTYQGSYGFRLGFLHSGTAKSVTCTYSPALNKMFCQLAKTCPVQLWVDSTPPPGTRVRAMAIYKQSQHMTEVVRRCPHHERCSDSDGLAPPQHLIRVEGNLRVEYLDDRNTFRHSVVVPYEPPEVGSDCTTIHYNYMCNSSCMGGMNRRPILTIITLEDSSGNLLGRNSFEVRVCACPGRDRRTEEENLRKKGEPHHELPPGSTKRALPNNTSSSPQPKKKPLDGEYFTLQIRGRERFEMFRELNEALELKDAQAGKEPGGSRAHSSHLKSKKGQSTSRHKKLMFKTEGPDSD
# How it was run: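 Signal is the blue/green (460nm/530nm) ratio of cleaved versus uncleaved CCF4-AM substrate, read after 2 h substrate loading. Cells were HCT116 carrying the p53-responsive beta-lactamase reporter, dosed 16 h at 37C, 5% CO2; CellTiter-Glo measured in parallel.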
smiles,measurement,setting,value
Nc1nc(=S)c2[nH]cnc2[nH]1,outcome,[1],inactive
same,outcome,[2],inactive
same,AC50,[3],active: 19.9 µM
same,AC50,[4],active: 2.93 µM
same,AC50,[5],active: 10.9 µM
CCCCCCCO,outcome,[6],inactive
CC(C)c1cccc(C(C)C)c1N1C(=O)c2ccc(O)cc2C1=O,outcome,[7],inactive
same,outcome,[8],inactive
same,AC50,[9],active: 37.5 µM
same,AC50,[10],active: 7.84 µM
same,AC50,[11],active: 50 µM
same,AC50,[12],active: 50 µM
same,AC50,[13],active: 50 µM
CC(CCC(=O)O)(c1ccc(O)cc1)c1ccc(O)cc1,outcome,[14],inactive
same,outcome,[15],inactive
O=C(O)c1ccccc1,outcome,[16],inactive
same,outcome,[17],inactive
same,outcome,[18],inactive
same,outcome,[19],inactive
same,outcome,[20],inactive
same,outcome,[21],inactive
same,outcome,[22],inactive
COc1ccc([N+](=O)[O-])cc1N,outcome,[1],inactive
NC(=O)N1c2ccccc2C=Cc2ccccc21,outcome,[16],inactive
